# Screen size: about 310,000 compounds; about 14,000 (4.5%) showed an effect of 50% or more. The effect is printed as a negative number. The list shows a part of the results.
# Target: human ether-à-go-go-related gene (hERG) potassium channel (human, UniProt Q12809)
# Assay: primary screen, population patch clamp on CHO cells stably expressing hERG
# 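Note: peak tail current of the secondary pulse compared with the same well before compound.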
# Chain of human ether-à-go-go-related gene (hERG) potassium channel (Q12809 whole entry, looked up): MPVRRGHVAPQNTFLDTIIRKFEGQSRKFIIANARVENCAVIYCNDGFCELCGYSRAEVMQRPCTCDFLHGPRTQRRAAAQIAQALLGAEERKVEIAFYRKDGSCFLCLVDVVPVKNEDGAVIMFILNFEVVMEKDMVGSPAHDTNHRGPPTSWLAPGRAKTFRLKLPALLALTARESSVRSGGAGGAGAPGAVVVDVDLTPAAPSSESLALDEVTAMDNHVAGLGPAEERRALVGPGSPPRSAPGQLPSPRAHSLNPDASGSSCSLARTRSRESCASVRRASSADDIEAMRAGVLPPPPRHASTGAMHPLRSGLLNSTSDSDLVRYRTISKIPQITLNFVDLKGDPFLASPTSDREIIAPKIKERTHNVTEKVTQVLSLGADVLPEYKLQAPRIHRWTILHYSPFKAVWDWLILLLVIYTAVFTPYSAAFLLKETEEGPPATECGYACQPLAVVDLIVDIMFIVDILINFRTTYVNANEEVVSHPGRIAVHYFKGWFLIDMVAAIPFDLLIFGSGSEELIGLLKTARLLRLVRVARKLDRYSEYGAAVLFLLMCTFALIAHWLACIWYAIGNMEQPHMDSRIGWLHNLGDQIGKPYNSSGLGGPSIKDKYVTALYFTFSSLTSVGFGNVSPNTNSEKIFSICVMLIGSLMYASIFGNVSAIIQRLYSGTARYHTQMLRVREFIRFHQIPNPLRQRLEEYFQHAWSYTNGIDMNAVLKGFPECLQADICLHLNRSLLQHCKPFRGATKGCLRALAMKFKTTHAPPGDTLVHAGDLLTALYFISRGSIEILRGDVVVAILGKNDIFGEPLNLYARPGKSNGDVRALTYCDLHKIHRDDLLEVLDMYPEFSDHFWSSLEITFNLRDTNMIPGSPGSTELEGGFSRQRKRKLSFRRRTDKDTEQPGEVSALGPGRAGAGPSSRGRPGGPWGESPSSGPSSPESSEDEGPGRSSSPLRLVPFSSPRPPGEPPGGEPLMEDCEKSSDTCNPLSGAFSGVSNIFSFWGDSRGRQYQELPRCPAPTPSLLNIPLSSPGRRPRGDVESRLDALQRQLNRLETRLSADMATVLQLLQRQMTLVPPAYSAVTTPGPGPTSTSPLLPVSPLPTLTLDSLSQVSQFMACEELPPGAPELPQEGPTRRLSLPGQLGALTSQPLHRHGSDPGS
row,Compound,"hERG current change (%, negative = inhibition) at 10uM [%]"
1,CC1CCCCC1NC(=O)C1CCCN(S(=O)(=O)c2ccc(-n3cnnn3)cc2)C1 (centres unmarked),-43.6
2,COC(=O)CCC(=O)OC1(C)C(=O)C=C2C=C(C3CC3)N(C3CC3)C=C2C1=O (centres unmarked),13
3,CCCCNC(=O)Cn1c(-c2ccc(OC)cc2)noc1=O,-12.3
4,CC1CN(S(=O)(=O)N(C)C)CCN1S(=O)(=O)N(C)C (centres unmarked),3.53
5,COc1cc(OC)c(OC)cc1CNC(=O)c1cc(=O)c2ccccc2o1,8.48
6,CCn1cc(CN2CCC(n3nccc3NC(=O)C3CCCC3)CC2)c(C)n1,-12.4
7,CCn1c2ccccc2c2cc(/C(C)=N/O)ccc21,-4.31
8,Cc1c(C(=O)NCCn2ccc3ccccc32)cccc1[N+](=O)[O-],-12.1
9,Cc1ccc(NC(=O)COC(=O)CN2C(=O)NC3(CCCC3)C2=O)cc1Cl,-5.92
10,c1cncc(C2CCCN2)c1 (centres unmarked),7.12
11,O=C(/C(=N/N=C/c1ccc(O)c(O)c1O)c1ccccc1)c1ccccc1,4.39
12,CCN(CC)S(=O)(=O)c1ccc(NC(=O)C(OC)c2ccccc2)cc1 (centres unmarked),-10.3
13,COc1ccc(NS(=O)(=O)c2ccc3oc(=O)ccc3c2)cc1,9.08
14,CCN(CC(=O)Nc1ccc(NC(C)=O)cc1)C(=O)COc1ccccc1-c1ccccc1,-17.5
15,COc1ccc(CN(CCC(c2ccccc2)c2ccc(OC(C)C)cc2)C(=O)CCl)cc1OC (centres unmarked),-1.82
16,O=C(NC1CCN(c2ncccn2)CC1)c1c(F)cccc1F,15.8
17,O=C(CNC(=O)c1ccc(F)cc1)NCc1ccc(Cl)cc1,9.88
18,COc1ccc([C@@H]2Sc3cc(OC)ccc3N(CCN(C(C)C)C(C)C)C(=O)[C@H]2OC(C)=O)cc1.Cl,-75
19,Cc1ccc(NCC(=O)N/N=C/c2ccncc2)cc1,27.7
20,Cc1ccc(C)c(NC(=O)CSc2nnc([C@@H](N)Cc3ccccc3)o2)c1.Cl,-6.03
21,COc1ccc(S(=O)(=O)N2CCCC2C(=O)Nc2nccs2)cc1 (centres unmarked),6.48
22,Cc1ccc(C(=O)Oc2coc(CSc3nnc(NC(=O)c4cccs4)s3)cc2=O)cc1,6.03

row,Compound,"hERG current change (%, negative = inhibition) at 10uM [%]"
1,Cc1cnccc1CNC(=O)CC1C(=O)NCCN1CC(C)(C)C (centres unmarked),-12.5
2,Brc1ccccc1OCCCOc1cccc2cccnc12,5.67
3,CCOc1cccc(=[NH+]C2CCCCC2)c2c(C)[nH]c(C)c12.[O-][Cl+3]([O-])([O-])[O-],-70.3
4,CCOc1cc(/C=C/C(=O)O)ccc1OCCOc1ccccc1,7.54
5,CCCC(=O)n1nc(-c2ccc(C)cc2)nc1NCc1ccco1,11.3
6,CCOP(=O)(OCC)c1nc(-c2ccc(C)cc2)oc1NCc1ccccc1,-23.5
7,O=C(C(=O)N1CCCCCC1)c1c[nH]c2ccccc12,13.4
8,CCOc1ccc(NCCC(O)c2ccc(F)cc2)cc1 (centres unmarked),10.7
9,O=C1CCCN1CCC1CCN(C2CC(=O)N(Cc3ccc(N4CCCC4=O)cc3)C2=O)CC1 (centres unmarked),4.97
10,CCOc1cccc(N2C(=O)CC(N3CCN(c4nc5ccccc5s4)CC3)C2=O)c1 (centres unmarked),5.09
11,COc1cccc(NC(=O)N2CCC(C(=O)Nc3ccc(C)cc3C)CC2)c1,-1.33
12,CCOC(=O)c1c(NC(=S)NC(=O)c2ccc(Cn3cc(Cl)cn3)o2)sc2c1CCC(C)C2 (centres unmarked),36.7
13,COc1ccc(C(=O)NC(Nc2ccccc2)C(Cl)(Cl)Cl)cc1 (centres unmarked),9.54
14,O=C(CSC1=NC(=O)C(c2ccccc2)C(=O)N1)Nc1cccc(Cl)c1 (centres unmarked),19.7
15,CC(C)(C)c1nnc2sc(SCC(=O)N3CCc4ccccc43)nn2c1=O,-1.23
16,O=C(CCn1nc(-c2ccccc2)ccc1=O)N1CCN(c2ccccc2)CC1,-11.2
17,COc1cc(/C=N/OCC(=O)NC2CCCCC2)ccc1OCc1ccccc1,-4.13
18,CCOc1ccc(NC(=O)CCCCCN2C(=O)[C@@H]3Cc4ccccc4CN3C2=O)cc1,2.76
19,Fc1ccc(C(c2nnnn2Cc2cccs2)N2CCN(C3CCCCC3)CC2)cc1 (centres unmarked),-60.3
20,CCOC(=O)CNC(=O)CSc1ncccc1-c1nc2ccccc2[nH]1,-0.362
21,Cc1nc(Cl)nc(N(C)c2ccccc2)c1[N+](=O)[O-],-3.35
22,Cc1cccc(C(=O)OCC(=O)N2CCC(c3ccccc3)=N2)c1O,10.1
